{"source": "paper PMC6721692", "about": "“Extracellular Juxtamembrane Motif Critical for TrkB Preformed Dimer and Activation” (Cells, 2019)", "proteins": {"B1": {"name": "TrkBECD365 (human TrkB extracellular domain 1 to domain 5, without EJM) (domain or fragment)", "chain": "not shown", "notes": "A gp67 signal peptide was put at the N-terminus for secretion (pFastBac Dual); also called TrkB ECD lacking EJM; source: baculovirus-infected SF9 cells, secreted, purified (Ni-NTA, Superdex-200); not shown: His6, C-terminal, kept"}}, "molecular_target": "the molecule itself", "experiment": "native gel or EMSA; purified recombinant TrkB ECD (0.33 μM) without BDNF, overnight at 4 °C; native PAGE with neither SDS nor β-ME, Western blot", "data": [{"protein": "B1", "values": [{"measurement": "stoichiometry N", "value": 2}]}]}
